Test results: US11420968B2 (priority 2018, dated 2022)

Experiments:
Molt-4 cells = assay: cells; conditions: Homo sapiens, MOLT-4, read-out: Cellular activity (IC50, nM) Molt-4
RS4;11 cells = assay: cells; conditions: Homo sapiens, RS4-11, 48 h, read-out: Cellular activity (IC50, nM) RS4; 11

SMILES | IC50 (Molt-4 cells) [nM] | IC50 (RS4;11 cells) [nM]
O=C(NS(=O)(=O)c1ccc(NCC2CCOCC2)c([N+](=O)[O-])c1)c1ccc(C2=CCC(N3CCCC3Cc3ccccc3)CC2)cc1Oc1cnc2[nH]ccc2c1 (stereo not drawn) [Example C6, 3-((1H-pyrrolo[2,3-b]pyridin-5-yl)oxy)-4′-(2-benzylpyrrolidin-1-yl)-N-((3-nitro-4-(((tetrahydro-2H-pyran-4-yl)methyl)amino)phenyl)sulfonyl)-2′,3′,4′,5′-tetrahydro-[1,1′-biphenyl]-4-carboxamide] | > 10000 | 1300
O=C(NS(=O)(=O)c1ccc(NCC2CCOCC2)c([N+](=O)[O-])c1)c1ccc(C2=CCC(N3CCCC3c3ccccn3)CC2)cc1Oc1cnc2[nH]ccc2c1 (stereo not drawn) [Example C7, 3-((1H-pyrrolo[2,3-b]pyridin-5-yl)oxy)-N-((3-nitro-4-(((tetrahydro-2H-pyran-4-yl)methyl)amino)phenyl)sulfonyl)-4′-(2-(pyridin-2-yl)pyrrolidin-1-yl)-2′,3′,4′,5′-tetrahydro-[1,1′-biphenyl]-4-carboxamide] | > 10000 | 2180
O=C(NS(=O)(=O)c1ccc(NCC2CCOCC2)c([N+](=O)[O-])c1)c1ccc(C2=CCC(N3CCCC3c3ccccc3-c3ccoc3)CC2)cc1Oc1cnc2[nH]ccc2c1 (stereo not drawn) [Example C8, 3-((1H-pyrrolo[2,3-b]pyridin-5-yl)oxy)-4′-(2-(2-(furan-3-yl)phenyl)pyrrolidin-1-yl)-N-((3-nitro-4-(((tetrahydro-2H-pyran-4-yl)methyl)amino)phenyl)sulfonyl)-2′,3′,4′,5′-tetrahydro-[1,1′-biphenyl]-4-carboxamide] | > 10000 | 694
O=C(NS(=O)(=O)c1ccc(NCC2CCOCC2)c([N+](=O)[O-])c1)c1ccc(C2=CCC(N3CCCC3c3cccc4ccccc34)CC2)cc1Oc1cnc2[nH]ccc2c1 (stereo not drawn) [Example C11, 3-((1H-pyrrolo[2,3-b]pyridin-5-yl)oxy)-4′-(2-(naphthalen-1-yl)pyrrolidin-1-yl)-N-((3-nitro-4-(((tetrahydro-2H-pyran-4-yl)methyl)amino)phenyl)sulfonyl)-2′,3′,4′,5′-tetrahydro-[1,1′-biphenyl]-4-carboxamide] | > 10000 | 261
CCCc1ccccc1C1CCCN1C1CC=C(c2ccc(C(=O)NS(=O)(=O)c3ccc(NCC4CCOCC4)c([N+](=O)[O-])c3)c(Oc3cnc4[nH]ccc4c3)c2)CC1 (stereo not drawn) [Example C14, 3-((1H-pyrrolo[2,3-b]pyridin-5-yl)oxy)-N-((3-nitro-4-(((tetrahydro-2H-pyran-4-yl)methyl)amino)phenyl)sulfonyl)-4′-(2-(2-propylphenyl)pyrrolidin-1-yl)-2′,3′,4′,5′-tetrahydro-[1,1′-biphenyl]-4-carboxamide] | 7930 | 93
CC(C)c1ccccc1C1CCCN1C1CC=C(c2ccc(C(=O)NS(=O)(=O)c3ccc(NCC4CCOCC4)c([N+](=O)[O-])c3)c(Oc3cnc4[nH]ccc4c3)c2)CC1 (stereo not drawn) [Example C18, 3-((1H-pyrrolo[2,3-b]pyridin-5-yl)oxy)-4′-(2-(2-isopropylphenyl)pyrrolidin-1-yl)-N-((3-nitro-4-(((tetrahydro-2H-pyran-4-yl)methyl)amino)phenyl)sulfonyl)-2′,3′,4′,5′-tetrahydro-[1,1′-biphenyl]-4-carboxamide] | 9820 | 121
C=C(C)c1ccccc1C1CCCN1C1CC=C(c2ccc(C(=O)NS(=O)(=O)c3ccc(NCC4CCOCC4)c([N+](=O)[O-])c3)c(Oc3cnc4[nH]ccc4c3)c2)CC1 (stereo not drawn) [Example C19, 3-((1H-pyrrolo[2,3-b]pyridin-5-yl)oxy)-N-((3-nitro-4-(((tetrahydro-2H-pyran-4-yl)methyl)amino)phenyl)sulfonyl)-4′-(2-(2-(prop-1-en-2-yl)phenyl)pyrrolidin-1-yl)-2′,3′,4′,5′-tetrahydro-[1,1′-biphenyl]-4-carboxamide] | 7270 | 204
CC(C)Cc1ccccc1C1CCCN1C1CC=C(c2ccc(C(=O)NS(=O)(=O)c3ccc(NCC4CCOCC4)c([N+](=O)[O-])c3)c(Oc3cnc4[nH]ccc4c3)c2)CC1 (stereo not drawn) [Example C21, 3-((1H-pyrrolo[2,3-b]pyridin-5-yl)oxy)-4′-(2-(2-isobutylphenyl)pyrrolidin-1-yl)-N-((3-nitro-4-(((tetrahydro-2H-pyran-4-yl)methyl)amino)phenyl)sulfonyl)-2′,3′,4′,5′-tetrahydro-[1,1′-biphenyl]-4-carboxamide] | 5440 | 132
CC(C)Oc1ccccc1C1CCCN1C1CC=C(c2ccc(C(=O)NS(=O)(=O)c3ccc(NCC4CCOCC4)c([N+](=O)[O-])c3)c(Oc3cnc4[nH]ccc4c3)c2)CC1 (stereo not drawn) [Example C41, 3-((1H-pyrrolo[2,3-b]pyridin-5-yl)oxy)-4′-(2-(2-isopropoxyphenyl)pyrrolidin-1-yl)-N-((3-nitro-4-(((tetrahydro-2H-pyran-4-yl)methyl)amino)phenyl)sulfonyl)-2′,3′,4′,5′-tetrahydro-[1,1′-biphenyl]-4-carboxamide] | > 10000 | 122
O=C(NS(=O)(=O)c1ccc(NCC2CCOCC2)c([N+](=O)[O-])c1)c1ccc(C2=CCC(N3CCCC3c3ccccc3OC3CC3)CC2)cc1Oc1cnc2[nH]ccc2c1 (stereo not drawn) [Example C42, 3-((1H-pyrrolo[2,3-b]pyridin-5-yl)oxy)-4′-(2-(2-cyclopropoxyphenyl)pyrrolidin-1-yl)-N-((3-nitro-4-(((tetrahydro-2H-pyran-4-yl)methyl)amino)phenyl)sulfonyl)-2′,3′,4′,5′-tetrahydro-[1,1′-biphenyl]-4-carboxamide] | > 10000 | 226
O=C(NS(=O)(=O)c1ccc(NCC2CCOCC2)c([N+](=O)[O-])c1)c1ccc(C2=CCC(N3CCCC3c3cccc(Cl)c3C3CC3)CC2)cc1Oc1cnc2[nH]ccc2c1 (stereo not drawn) [Example C51, 3-((1H-pyrrolo[2,3-b]pyridin-5-yl)oxy)-4′-(2-(3-chloro-2-cyclopropylphenyl)pyrrolidin-1-yl)-N-((3-nitro-4-(((tetrahydro-2H-pyran-4-yl)methyl)amino)phenyl)sulfonyl)-2′,3′,4′,5′-tetrahydro-[1,1′-biphenyl]-4-carboxamide] | 9480 | 59
O=C(NS(=O)(=O)c1ccc(NCC2CCOCC2)c([N+](=O)[O-])c1)c1ccc(C2=CCC(N3CCCC3c3ccc(F)cc3C3CC3)CC2)cc1Oc1cnc2[nH]ccc2c1 (stereo not drawn) [Example C53, 3-((1H-pyrrolo[2,3-b]pyridin-5-yl)oxy)-4′-(2-(2-cyclopropyl-4-fluorophenyl)pyrrolidin-1-yl)-N-((3-nitro-4-(((tetrahydro-2H-pyran-4-yl)methyl)amino)phenyl)sulfonyl)-2′,3′,4′,5′-tetrahydro-[1,1′-biphenyl]-4-carboxamide] | 4220 | 180
O=C(NS(=O)(=O)c1ccc(NCC2CCOCC2)c([N+](=O)[O-])c1)c1ccc(C2=CCC(N3CCCC3c3c(F)cccc3C3CC3)CC2)cc1Oc1cnc2[nH]ccc2c1 (stereo not drawn) [Example C55, 3-((1H-pyrrolo[2,3-b]pyridin-5-yl)oxy)-4′-(2-(2-cyclopropyl-6-fluorophenyl)pyrrolidin-1-yl)-N-((3-nitro-4-(((tetrahydro-2H-pyran-4-yl)methyl)amino)phenyl)sulfonyl)-2′,3′,4′,5′-tetrahydro-[1,1′-biphenyl]-4-carboxamide] | 5300 | 86
O=C(NS(=O)(=O)c1ccc(NCC2CCOCC2)c([N+](=O)[O-])c1)c1ccc(C2=CCC(N3CCCC3c3sccc3C3CC3)CC2)cc1Oc1cnc2[nH]ccc2c1 (stereo not drawn) [Example C57, 3-((1H-pyrrolo[2,3-b]pyridin-5-yl)oxy)-4′-(2-(3-cyclopropylthiophen-2-yl)pyrrolidin-1-yl)-N-((3-nitro-4-(((tetrahydro-2H-pyran-4-yl)methyl)amino)phenyl)sulfonyl)-2′,3′,4′,5′-tetrahydro-[1,1′-biphenyl]-4-carboxamide] | > 10000 | 463
O=C(NS(=O)(=O)c1ccc(NCC2CCOCC2)c([N+](=O)[O-])c1)c1ccc(C2=CCC(N3CCCC3c3ccccc3C3CCNCC3)CC2)cc1Oc1cnc2[nH]ccc2c1 (stereo not drawn) [Example C66, 3-((1H-pyrrolo[2,3-b]pyridin-5-yl)oxy)-N-((3-nitro-4-(((tetrahydro-2H-pyran-4-yl)methyl)amino)phenyl)sulfonyl)-4′-(2-(2-(piperidin-4-yl)phenyl)pyrrolidin-1-yl)-2′,3′,4′,5′-tetrahydro-[1,1′-biphenyl]-4-carboxamide] | > 10000 | 3010
O=C(NS(=O)(=O)c1ccc(NCC2CCOCC2)c([N+](=O)[O-])c1)c1ccc(C2=CCC(N3CC=CC3c3ccccc3C3CC3)CC2)cc1Oc1cnc2[nH]ccc2c1 (stereo not drawn) [Example C81, 3-((1H-pyrrolo[2,3-b]pyridin-5-yl)oxy)-4′-(2-(2-cyclopropylphenyl)-2,5-dihydro-1H-pyrrol-1-yl)-N-((3-nitro-4-(((tetrahydro-2H-pyran-4-yl)methyl)amino)phenyl)sulfonyl)-2′,3′,4′,5′-tetrahydro-[1,1′-biphenyl]-4-carboxamide] | > 10000 | 410
O=C(NS(=O)(=O)c1ccc(NCC2CCOCC2)c([N+](=O)[O-])c1)c1ccc(C2=CCC(N3CC(F)CC3c3ccccc3C3CC3)CC2)cc1Oc1cnc2[nH]ccc2c1 (stereo not drawn) [Example C89, 3-((1H-pyrrolo[2,3-b]pyridin-5-yl)oxy)-4′-(2-(2-Cyclopropylphenyl)-4-fluoropyrrolidin-1-yl)-N-((3-nitro-4-(((tetrahydro-2H-pyran-4-yl)methyl)amino)phenyl)sulfonyl)-2′,3′,4′,5′-tetrahydro-[1,1′-biphenyl]-4-carboxamide] | 7610 | 328
O=C(NS(=O)(=O)c1ccc(NCC2CCOCC2)c([N+](=O)[O-])c1)c1ccc(C2=CCC(N3CC(F)(F)CC3c3ccccc3C3CC3)CC2)cc1Oc1cnc2[nH]ccc2c1 (stereo not drawn) [Example C90, 3-((1H-pyrrolo[2,3-b]pyridin-5-yl)oxy)-4′-(2-(2-cyclopropylphenyl)-4,4-difluoropyrrolidin-1-yl)-N-((3-nitro-4-(((tetrahydro-2H-pyran-4-yl)methyl)amino)phenyl)sulfonyl)-2′,3′,4′,5′-tetrahydro-[1,1′-biphenyl]-4-carboxamide] | 1470 | 291
